# Test results as given in ChEMBL document CHEMBL4888484, “Replenishing the malaria drug discovery pipeline: Screening and hit evaluation of the MMV Hit Generation Library 1 (HGL1) against asexual blood stage Plasmodium falciparum ,using a nano luciferase reporter read-out” (2022).
# Out of some 150,000 compounds screened, about 540 (0.36%) showed an effect of 50% or more. The list shows a part of the results.
# System: Plasmodium falciparum
# Assay: Primary screen in NF54 nanoGlo assay, in single point, at 2uM, 72h; a lower Z score goes with more inhibition
# Assay type: functional, Erythrocyte
# Details: timepoint 72 hour
Compound,% Inhibition,Z score
CN(C)c1noc(-c2ccnn2C2CCCC2)n1,7%,-0.92
CCOC(=O)C1CCN(c2cc3c(cc2NC(=O)NC2CCCC2)n(C)c(=O)n3C)CC1,-2%,0.41
C#CCN(C)C(=O)c1ccc(O)cc1C,-5%,0.67
O=C(C[C@H]1CCC2(CCOCC2)CO1)Nc1cccnc1C1CC1,5%,-0.7
CCOC(=O)c1c(C)[nH]c(CCC(=O)Nc2cc3c(cc2C(=O)OC)OCO3)c1C,-1%,0.16
CC(C)(C)OC(=O)NCC(NC(=O)C1CCS(=O)(=O)C1)C1CC1 (stereo not given),-8%,1.03
COc1ccccc1CC(=O)Nc1cc(S(=O)(=O)N2CCOCC2)ccc1N1CCOCC1,-6%,0.96
COc1ccc(-c2ccno2)cc1S(=O)(=O)NCc1nc(C)cs1,7%,-0.93
CCc1nccn1CCC(=O)N(C)Cc1cccnc1,-1%,0.1
CCC[C@H]1CN(c2nccc(N)n2)C[C@@H]1NS(C)(=O)=O,-9%,1.69
CCC(C)N(CC(=O)N(Cc1ccco1)CC1CCCO1)C(=O)C(C)C (stereo not given),-8%,1.14
O=C1C[C@H](CNC(=O)N2CCC(CCc3ccc(F)cc3F)CC2)CN1,-6%,1.19
Cc1nc(NC2C3CCOC3C2(C)C)nc(N(C)C)n1 (stereo not given),-17%,2.4
Cc1cc(C)c2sc(N3CCN(C(=O)NC4CCCC4)CC3)nc2c1,16%,-1.87
CCc1ncsc1NC(=O)NCCc1ccc(O)cc1,-12%,1.34
CCN(C(=O)[C@H]1[C@@H]2C[C@@H]3[C@H]1C(=O)O[C@@H]3C2)c1cccc(C)c1,-15%,2.08
COc1ccc(C(=O)N2C[C@@H]3C[C@H](N(C)C)CN3C(=O)[C@@H]2C)c(C)c1,-10%,1.63
O=C(NCCn1ccnc1)c1[nH]nc(C2CC2)c1Cl,-9%,1.61
Cc1nn(CCO)cc1CN1CC(N2CCOCC2)C1,-4%,0.85
Cc1nc(C(F)(F)F)c(CN(C)C[C@H]2CCOC2)s1,-8%,1.25
C[C@@H](Cn1cccn1)C(=O)NCCc1csc(N)n1,-9%,1.25
Cc1c(F)cccc1C(=O)N(C)Cc1cc(C2CC2)on1,1%,-0.14
O=C(CCc1nc2ccccc2c(=O)[nH]1)N1CCC1,-14%,2.16
CC(=O)N[C@H](c1nc(-c2cc(C)c3[nH]cnc3c2)no1)C1CCCC1,1%,-0.16
c1ccc(C(c2ccccc2)c2nc(-c3cccnn3)no2)cc1,-18%,2.25
O=S(=O)(c1cc(F)cc(F)c1)N(CCCN1CCOCC1)[C@H]1CCCNC1,-3%,0.33
Cc1c(NC(=O)N2CC[C@H](CN3CCCCC3)C2)cccc1N(C)C,-11%,0.98
C[C@H](Oc1ccc(F)cc1)C(=O)N1CCN2CCOc3cccc1c32,-8%,1.14

Compound,% Inhibition,Z score
CCC1CCC(C)N1C(=O)C1OCCC1C (stereo not given),-8%,0.69
CC(C)c1nc(CNc2cc([C@H]3C[C@H](N)C3)nc(C3CC3)n2)no1,2%,-0.35
O=C(c1cscn1)N(CC(F)(F)F)[C@H]1CCCOC1,4%,-0.65
COc1cc2c(cc1CNc1nc(N)nc3c1CCNCC3)CCC2,28%,-3.73
Cc1ncc(CN2CCOC[C@@H](C3CCC3)C2)cn1,2%,-0.25
CC(=O)Nc1nc(C(=O)NCc2sccc2C)cs1,-7%,1
Cc1nc2ccc(NC(=O)N3CCC(Cn4ccnc4C)CC3)cc2nc1C,5%,-0.47
Cc1ccn(CC(=O)NC2CCN(C3CCCCC3O)CC2)c(=O)c1 (stereo not given),1%,-0.17
COCc1nc([C@@]2(C)CCCN(C(=O)CCc3ccc(OC)cc3)C2)no1,-1%,0.14
O=C1CC[C@]2(CNC(=O)c3ccc(F)cc3)CCC=C2N1,-14%,1.96
CC[C@H](O)Cn1ncnc1-c1cccc2c(C)c(C)[nH]c12,-11%,1.73
CC(C)c1ccc(OC[C@H]2CN(C(=O)c3ccccc3)CCO2)cc1,-7%,0.99
COc1ccc(NC(=O)c2cc(S(=O)(=O)N3CCOCC3)ccc2Oc2ccccc2)cc1,-5%,0.84
Cc1cnn(C2CN(C(=O)[C@@H]3CN(S(=O)(=O)c4ccccc4Cl)CCO3)C2)c1,-3%,0.35
N#CC1CCC(NCC(c2ccco2)N2CCCC2)C1 (stereo not given),-10%,1.42
O=C(Nc1ccccc1-c1ncco1)[C@H]1CCCO1,10%,-1.49
O=C(CCc1ccc(F)c(F)c1)NCc1noc([C@@H]2CCCO2)n1,-7%,1.29
O=C(c1ccc2c(c1)CCC2)N1CC(O)C1,0%,0
CCN1CCCN(CCOc2cccc(C#N)c2)CC1,-1%,0.11
Cc1nnnn1Cc1ccc(C(=O)N2CC[C@@](O)(c3ccccc3)[C@H]3CCCC[C@H]32)cc1,-6%,0.59
CCC(CC)NC(=O)c1ccccc1Br,-7%,1.32
COCCOCC(=O)N1CCC2(CC1)c1[nH]c3ccc(OC)cc3c1CCN2C,3%,-0.59
O=C(COc1ccc(F)cc1)NCCNC(=O)c1nc(-c2ccc(F)cc2)no1,-10%,1.36
Cc1ncsc1CN1C[C@@H](F)C[C@H]1CN(C)c1nnc(C2CC2)o1,24%,-2.73
Cn1nccc1[C@@H]1CN(C(=O)CC2CCCCC2)C[C@H]1N,-4%,0.65
CC(=O)Nc1ccc(-c2nccn2-c2cnc3ccccc3c2)cc1,-8%,1.15
CCN=C(NCc1sc(C)nc1C)NC[C@@H](c1ccco1)N(C)C,-12%,1.74
